Assay results from US9340582B2, “Bioconjugates of synthetic apelin polypeptides” (NOVARTIS AG, priority 2013, dated 2016).

B1: Example 9: Fc-apelin fusion SEQ ID NO: 116; Fc C-terminal Lys replaced with Ala, linker GGGGSGGGGSGGGGS, polypeptide QRPRLC*HKGPMC*F (protein)
chain: METDTLLLWVLLLWVPGSTG[skipping human IgG1 Fc with changes]AGGGGSGGGGSGGGGSQRPRLCHKGPMCF
modifications: disulfide cyclisation
B2: Example 13: Fc-apelin fusion SEQ ID NO: 120; linker GGGGS, polypeptide QRPRLC*HKGPMC*F (protein)
chain: METDTLLLWVLLLWVPGSTG[skipping human IgG1 Fc with changes]GGGGSQRPRLCHKGPMCF
modifications: disulfide cyclisation
B3: Example 11: Fc-apelin fusion SEQ ID NO: 118; linker GS, polypeptide QRPRLC*HKGPMC*F (protein)
chain: METDTLLLWVLLLWVPGSTG[skipping human IgG1 Fc with changes]GSQRPRLCHKGPMCF
modifications: disulfide cyclisation
B4: Example 12: Fc-apelin fusion SEQ ID NO: 119; linker GG, polypeptide QRPRLC*HKGPMC*F (protein)
chain: METDTLLLWVLLLWVPGSTG[skipping human IgG1 Fc with changes]GGQRPRLCHKGPMCF
modifications: disulfide cyclisation
B5: Example 15: Fc-apelin fusion SEQ ID NO: 122; Fc C-terminal Lys replaced with Ala, linker GGGGS GGGGS GGGGS, polypeptide QRPRLC*HKGPMC* (protein)
chain: METDTLLLWVLLLWVPGSTG[skipping human IgG1 Fc with changes]AGGGGSGGGGSGGGGSQRPRLCHKGPMC
modifications: disulfide cyclisation
B6: Example 17: Fc-apelin fusion SEQ ID NO: 124; linker GS, polypeptide QRPRLC*HKGPMC* (protein)
chain: METDTLLLWVLLLWVPGSTG[skipping human IgG1 Fc with changes]GSQRPRLCHKGPMC
modifications: disulfide cyclisation
B7: Example 18: Fc-apelin fusion SEQ ID NO: 125; linker GG, polypeptide QRPRLC*HKGPMC* (protein)
chain: METDTLLLWVLLLWVPGSTG[skipping human IgG1 Fc with changes]GGQRPRLCHKGPMC
modifications: disulfide cyclisation
B8: Example 19: Fc-apelin fusion SEQ ID NO: 126; linker GGGGS, polypeptide QRPRLC*HKGPMC* (protein)
chain: METDTLLLWVLLLWVPGSTG[skipping human IgG1 Fc with changes]GGGGSQRPRLCHKGPMC
modifications: disulfide cyclisation
B9: Example 6: Fc-Apelin fusion SEQ ID NO: 100; linker GGGGSGGGGS, polypeptide QRPRLC*HKGPMC*F (protein)
chain: METDTLLLWVLLLWVPGSTG[skipping human IgG1 Fc with changes]GGGGSGGGGSQRPRLCHKGPMCF
modifications: disulfide cyclisation

test: Surrogate activity-based plasma stability assay; settings: Table 2

Surrogate activity-based Plasma stability t½, >16.67 h:
B1, B2, B3, B4, B5, B6, B7

test: not given; settings: not given

Surrogate activity-based Plasma stability t½, >16.67 h:
B8, B9
